Data as given in US10889573B2, “Anthelmintic quinoline-3-carboxamide derivatives” (Bayer Animal Health GMBH, priority 2016, dated 2021).
Some entries share one result that the patent states for a list of compounds. For at least one compound, name, drawing or mass did not settle the structure.

Test system: Nippostrongylus brasiliensis
Assay: In vitro assay 2: Nippostrongylus brasiliensis (NIPOBR), acetylcholine esterase readout
Protocol: In Vitro Assay 2: Nippostrongylus brasiliensis (NIPOBR)
Adult Nippostrongylus brasiliensis were washed with saline buffer containing 100 U/ml penicillin, 0.1 mg/ml streptomycin and 2.5 μg/ml amphotericin B. Test compounds were dissolved in DMSO and worms were incubated in medium in a final concentration of 10 μg/ml (10 ppm) respectively 1 μg/ml (1 ppm). An aliquot of the medium was used to determine the acetylcholine esterase activity in comparison to a negative control. The principle of measuring acetylcholine esterase as readout for anthelmintic activity was described in Rapson et al (1986) and Rapson et al (1987).

Row | SMILES | activity (reduction of AChE compared to negative control) (1 μg/ml) | activity (reduction of AChE compared to negative control) (10 μg/ml)
1 | CC(c1ccccc1)N(C)c1c(C(=O)NC2CCc3ccccc32)cnc2c(-c3cc(Cl)cc(Cl)c3)cccc12 (mixture of isomers) [Example 114] | higher than 80% | 
2 | O=C(NC1CCOc2ccccc21)c1cnc2c(-c3cccc(Cl)c3F)cccc2c1N1CCC(O)C1 (mixture of isomers) [Example 262] | higher than 80% | 
3 | NC1CN(c2c(C(=O)NC3CCOc4ccccc43)cnc3c(-c4cc(Cl)cc(Cl)c4)cccc23)CC1F (mixture of isomers) [Example 291] | higher than 80% | 
4 | O=C(NC1CCOc2ccccc21)c1cnc2c(-c3cc(Cl)cc(Cl)c3)cccc2c1N1CCOC(C(F)(F)F)C1 (mixture of isomers) [Example 374] | higher than 80% | 
5 | CN(C)c1c(C(=O)NC2CCOc3c(F)cccc32)cnc2c(-c3cc(Cl)cc(Cl)c3)cccc12 (racemic) [Example 620] | higher than 80% | higher than 80%
6 | CN(C)c1c(C(=O)NC2CCOc3ccc(F)cc32)cnc2c(-c3cc(Cl)cc(Cl)c3)cccc12 (racemic) [Example 623] | higher than 80% | higher than 80%
7 | CN(C)c1c(C(=O)NC2CCOc3c(Cl)cccc32)cnc2c(-c3cc(Cl)cc(Cl)c3)cccc12 (racemic) [Example 632] | higher than 80% | 
8 | Cc1cc(-c2cc(Cl)cc(Cl)c2)c2ncc(C(=O)N[C@H]3CCc4ccccc43)c(N(C)C)c2c1 [Example 11] |  | higher than 80%
9 | Cc1ccc2c(N(C)C)c(C(=O)N[C@H]3CCOc4ccccc43)cnc2c1-c1cc(Cl)cc(Cl)c1 [Example 18] | higher than 80% | higher than 80%
10 | Cc1ccc2c(N(C)C)c(C(=O)N[C@H]3CCc4ccccc43)cnc2c1-c1cc(Cl)cc(Cl)c1 [Example 19] | higher than 80% | higher than 80%
11 | O=C(N[C@H]1CCCc2ccccc21)c1cnc2c(-c3cc(Cl)cc(Cl)c3)cccc2c1N1CCOCC1 [Example 20] | higher than 80% | higher than 80%
12 | O=C(N[C@H]1CCOc2ccccc21)c1cnc2c(-c3cccc(Cl)c3)cccc2c1N1CCOCC1 [Example 25] | higher than 80% | higher than 80%
13 | O=C(N[C@H]1CCOc2ccccc21)c1cnc2c(-c3cc(Cl)cc(Cl)c3)cccc2c1-n1ccnc1 [Example 26] | higher than 80% | higher than 80%
14 | O=C(N[C@H]1CCc2ccccc21)c1cnc2c(-c3cccc(Cl)c3)cccc2c1N1CCOCC1 [Example 35] | higher than 80% | higher than 80%
15 | CN(Cc1ccccc1)c1c(C(=O)N[C@H]2CCOc3ccccc32)cnc2c(-c3cc(Cl)cc(Cl)c3)cccc12 [Example 59] |  | higher than 80%
16 | Cc1cc(F)cc(-c2cccc3c(N(C)C)c(C(=O)N[C@H]4CCOc5ccccc54)cnc23)c1 [Example 61] | higher than 80% | higher than 80%
17 | Cc1cc(-c2cccc3c(N(C)C)c(C(=O)N[C@H]4CCOc5ccccc54)cnc23)cc(C)n1 [Example 66] |  | higher than 80%
18 | CCN(CC)c1c(C(=O)N[C@H]2CCOc3ccccc32)cnc2c(-c3cc(Cl)cc(Cl)c3)cccc12 [Example 67] | higher than 80% | higher than 80%
19 | O=C(N[C@H]1CCc2ccccc21)c1cnc2c(-c3cc(Cl)cc(Cl)c3)cccc2c1Nc1cn[nH]c1 [Example 69] | higher than 80% | higher than 80%
20 | O=C(N[C@H]1CCOc2ccccc21)c1cnc2c(-c3cc(Cl)cc(Cl)c3)cccc2c1-n1cccn1 [Example 72] |  | higher than 80%
21 | COCCN(CCOC)c1c(C(=O)N[C@H]2CCOc3ccccc32)cnc2c(-c3cc(Cl)cc(Cl)c3)cccc12 [Example 78] |  | higher than 80%
22 | O=C(N[C@H]1CCOc2ccccc21)c1cnc2c(-c3ccc(F)c(F)c3F)cccc2c1N1CCOCC1 [Example 82] | higher than 80% | higher than 80%
23 | N[C@@H]1CCN(c2c(C(=O)N[C@H]3CCc4ccccc43)cnc3c(-c4cc(Cl)cc(Cl)c4)cccc23)C1 [Example 84] | higher than 80% | 

Row | SMILES | activity (reduction of AChE compared to negative control) (1 μg/ml) | activity (reduction of AChE compared to negative control) (10 μg/ml)
24 | CC(C)CN(C)c1c(C(=O)N[C@H]2CCc3ccccc32)cnc2c(-c3cc(Cl)cc(Cl)c3)cccc12 [Example 87] |  | higher than 80%
25 | COC[C@H]1CCCN1c1c(C(=O)N[C@H]2CCc3ccccc32)cnc2c(-c3cc(Cl)cc(Cl)c3)cccc12 [Example 92] | higher than 80% | 
26 | COCCN(CCOC)c1c(C(=O)N[C@H]2CCc3ccccc32)cnc2c(-c3cc(Cl)cc(Cl)c3)cccc12 [Example 93] | higher than 80% | 
27 | O=C(N[C@H]1CCc2ccccc21)c1cnc2c(-c3cc(Cl)cc(Cl)c3)cccc2c1NC1CCOCC1 [Example 95] | higher than 80% | higher than 80%
28 | O=C(N[C@H]1CCc2ccccc21)c1cnc2c(-c3cc(Cl)cc(Cl)c3)cccc2c1NCCO [Example 100] | higher than 80% | higher than 80%
29 | O=C(N[C@H]1CCc2ccccc21)c1cnc2c(-c3cc(Cl)cc(Cl)c3)cccc2c1N1CC[C@@H](O)C1 [Example 101] | higher than 80% | higher than 80%
30 | CCN(c1c(C(=O)N[C@H]2CCc3ccccc32)cnc2c(-c3cc(Cl)cc(Cl)c3)cccc12)C1CC1 [Example 104] |  | higher than 80%
31 | O=C(N[C@H]1CCc2ccccc21)c1cnc2c(-c3cc(Cl)cc(Cl)c3)cccc2c1N1CCC(F)(F)C1 [Example 112] | higher than 80% | higher than 80%
32 | CN(CCC(N)=O)c1c(C(=O)N[C@H]2CCc3ccccc32)cnc2c(-c3cc(Cl)cc(Cl)c3)cccc12 [Example 115] | higher than 80% | higher than 80%
33 | CC(=O)N1CCN(c2c(C(=O)N[C@H]3CCc4ccccc43)cnc3c(-c4cc(Cl)cc(Cl)c4)cccc23)CC1 [Example 116] | higher than 80% | higher than 80%
34 | O=C(N[C@H]1CCc2ccccc21)c1cnc2c(-c3cc(Cl)cc(Cl)c3)cccc2c1N1CCS(=O)(=O)CC1 [Example 117] | higher than 80% | 
35 | CN(Cc1ccccc1)c1c(C(=O)N[C@H]2CCc3ccccc32)cnc2c(-c3cc(Cl)cc(Cl)c3)cccc12 [Example 118] | higher than 80% | 
36 | CN(C)C(=O)CCNc1c(C(=O)N[C@H]2CCc3ccccc32)cnc2c(-c3cc(Cl)cc(Cl)c3)cccc12 [Example 122] | higher than 80% | higher than 80%
37 | Cc1nc(CNc2c(C(=O)N[C@H]3CCc4ccccc43)cnc3c(-c4cc(Cl)cc(Cl)c4)cccc23)no1 [Example 123] |  | higher than 80%
38 | NC(=O)CCNc1c(C(=O)N[C@H]2CCc3ccccc32)cnc2c(-c3cc(Cl)cc(Cl)c3)cccc12 [Example 124] | higher than 80% | 
39 | CC(=O)NCCNc1c(C(=O)N[C@H]2CCc3ccccc32)cnc2c(-c3cc(Cl)cc(Cl)c3)cccc12 [Example 126] | higher than 80% | 
40 | C[C@H](Nc1c(C(=O)N[C@H]2CCc3ccccc32)cnc2c(-c3cc(Cl)cc(Cl)c3)cccc12)C(N)=O [Example 127] | higher than 80% | higher than 80%
41 | COC(=O)CNc1c(C(=O)N[C@H]2CCc3ccccc32)cnc2c(-c3cc(Cl)cc(Cl)c3)cccc12 [Example 128] | higher than 80% | higher than 80%
42 | NC(=O)CNc1c(C(=O)N[C@H]2CCc3ccccc32)cnc2c(-c3cc(Cl)cc(Cl)c3)cccc12 [Example 129] | higher than 80% | 
43 | O=C(N[C@H]1CCOc2ccccc21)c1cnc2c(-c3ccc(Cl)c(Cl)c3)cc(F)cc2c1N1CCOCC1 [Example 144] | higher than 80% | higher than 80%
44 | COc1ccc2c(c1)[C@@H](NC(=O)c1cnc3c(-c4cc(Cl)cc(Cl)c4)cccc3c1N(C)C)CCO2 [Example 147] |  | higher than 80%
45 | CN(CCN1CCOCC1)c1c(C(=O)N[C@H]2CCOc3ccccc32)cnc2c(-c3cc(Cl)cc(Cl)c3)cccc12 [Example 149] | higher than 80% | 
46 | O=C(N[C@H]1CCOc2ccccc21)c1cnc2c(-c3cccc(Cl)c3F)cc(F)cc2c1N1CCOCC1 [Example 160] | higher than 80% | 
